Experimental data: PMC9865020, “Identification of Novel Small Molecule Ligands for JAK2 Pseudokinase Domain” (Pharmaceuticals, 2023)

Legend:
Assay in all cases: More sensitive FP binding assay, Bodipy FL-labeled JNJ-7706621 tracer
JAK3 JH2 = molecular target: T1, JAK3 JH2 (Homo sapiens, UniProt P52333)
T1 sequence (P52333 511-790): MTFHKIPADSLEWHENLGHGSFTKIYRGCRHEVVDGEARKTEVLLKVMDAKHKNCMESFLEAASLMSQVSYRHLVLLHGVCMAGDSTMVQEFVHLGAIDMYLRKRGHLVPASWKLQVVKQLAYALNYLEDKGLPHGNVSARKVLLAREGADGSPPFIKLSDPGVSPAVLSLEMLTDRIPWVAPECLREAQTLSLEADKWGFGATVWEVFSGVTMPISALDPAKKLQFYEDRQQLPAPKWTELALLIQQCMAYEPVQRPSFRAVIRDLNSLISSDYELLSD

JAK3 JH1 D949N = JAK3 JH1 D949N (Homo sapiens, UniProt P52333, D949N)
JAK1 JH1 D1003N = JAK1 JH1 D1003N (Homo sapiens, UniProt P23458, D1003N)
TYK2 JH2 = TYK2 JH2 (Homo sapiens, UniProt P29597)

IC50 (JAK3 JH2): > 100 µM
IC50 (JAK3 JH1 D949N): > 100 µM
IC50 (JAK1 JH1 D1003N): > 100 µM
IC50 (TYK2 JH2): > 100 µM
Compound: Cc1ccsc1CN(C)Cc1nc(N)nc(Nc2ccccc2)n1 [Compound 24]
